# The full ranking holds about 4,500 sequences; the median of “median log2 fold change of GCK-ALFA target abundance (FLAG IP / Myc IP barcode read proportion)” is about 0.078, and the lowest 2% start at about -0.6. This is one part of the list.
# B1: GBRAP_184_5165 (protein)
# chain: KVLERTLKVSNLEEAEKKLKEIEEEAKKTKAPLYVLLELEKPEKEILELVFRRLGEILREGLATSVTLELTSDLTEEQIDFAVRLADEAGVRLVLAISDE
# B2: GBRAP_83_6895 (protein)
# chain: KEEITVVANSDNIEEAFDIAIDLSKEEGYKVSIEVIVTPESVEKLLKAFEKLAKEKINVELTVYAEGMTEEEAEELKEKLEEIAKKYGVDVKIEVILVEP
# B3: GBRAP_14_3831 (protein)
# chain: KKTVKEIIKEALKEIEEELIKAFPEKAEEIKKGMEEILKEVFKELEETKDVEKAFKLLLEKSKEMVDEILKDESETDRAAAKALVDGIVAEAELEYEELK
# B4: GBRAP_160_4472 (protein)
# chain: SAAVAAAVARLRADVEEELERLKDESPEQIATGAAVTVGSELLEWSSEGLITDEQEDILAKAMDEILELGKTEKDASPEEMIKRIREIVDAAAAAILAAA
# B5: GBRAP_43_5759 (protein)
# chain: SKELVEGALDFALLAAEDPNISEETKVKAIIAALDLAADEGYLDEELLKEVVEAAAKNLSAESLKKIRDRAEERAKAYPELKEKFTKAADLLEKAIKAKE
# B6: GBRAP_125_3047 (protein)
# chain: SLEELVEALRLLAKKLGYSEEEVEEIARLARKYGVKGTLIAILLAEGEEELAELAAKLTDEQVAEVLLELKAWLEENPDASKEEVLKKLRELLEKALAKT
# B7: GBRAP_14_3879 (protein)
# chain: MEEIEKVIDEEFKELAEDLSEMFPEKAEEIKKLVEEIRKETIKLIKETGDVEKALKEAEEKLKAEITKLLADEDPTAIAAAKALVTDEIAEAEEEIEELL
# B8: GBRAP_14_3770 (protein)
# chain: MEKKEEIIREEAEEIVELLGEIVPEKAEEFREAVEEVREETIKEMKETGDVDAALDKGEEELVARIKEISADLDPETQAELVAVVRVGMGNAKLELDELE
# B9: GBRAP_160_3996 (protein)
# chain: SEKKEKIFKEIKEILEEAYELMKGESPEERLAIARVSAGEILLILDESGLVSDETEEEVDKILDEFVATVAANPDMSDEELKKLLEETFKKIKEVIEKNL
# B10: GBRAP_52_6002 (protein)
# chain: MEERMRALAEEVMALYLAGDREGARALMREVAATLSEEELLAFARELGRLALAHTPEAPEEALEALLDFEDIAEEEGASEEVIAELTAAAARVAALAEAQ
# B11: GBRAP_52_5890 (protein)
# chain: DLEEAVKLLREAVKAQKAGKEEEAKKILKEIVEKFDEETILAAVERLAEEVKTKSLEEAEAFYNTALLLAEIILEKGGSEEVASYIEAIAGATLYKIEQK
# B12: GBRAP_160_4504 (protein)
# chain: MEKLEEAKKEIDRIAEITIEAMKEVSDEDAVKIFEAGALDMIEYLREEYGISEEAEEELIEKLDELAAELKSIENLTDEDIEAAVNDFRDFAIKLLEEKS
# B13: GBRAP_52_6261 (protein)
# chain: MEEELRKKVEEALELVKEGKEEEARELLEKLARELNEEEFELFVREFAKLAEEAPAEDIEAVERLVELAEEEFEEAGKPEELVSLLAAEGYGAIYKRKQA
# B14: GBRAP_160_4171 (protein)
# chain: SETLEEAIEEIDEIFEEAVEMMRGQTAEERAAIARVAFGEIILLLEEKGLLTDELDEHIDEVEDRVVSYILAHPDLTDEELRELMEEARDEIIEALKKSS
# B15: GBRAP_9_7164 (protein)
# chain: SKEVKEKILEIVKEALEEMIEVVPEEVKPLAKKLAEEALKELEKAVKDEKVTVEEFAKLAKEKLKKVAEELKKKVSPEVAKQIEAIRLTAIEEIEEVVEE
# B16: GBRAP_128_3268 (protein)
# chain: MDPEVVEYAKEAVERIKTSSPEERKKIAEEFAKWLLESSLEDAEQAVEVVEERLHELSVEDLDILADALRKHRPKADPEKANLLADLEVEALNEAEEKEE
# B17: GBRAP_166_4925 (protein)
# chain: MIEEKVEEARKRLEEVIREGRADPSLTDGQITAAMAYEVAEMLKDIEDEEEKLAVVEEGLRLAKEEGLDPRRLATLTASLYGFSDEERERIDEITEKILA
# B18: GBRAP_52_6173 (protein)
# chain: MEARARAAAEALLAAIRAGRWEEVRKLLREAAETFNEEEITLMWDIVAERVPELSPADQERVVEAALEAEDILIEAGHDENLASYQTARVAGAAYAALQA
# B19: GBRAP_83_6903 (protein)
# chain: AEKIVVATHSDRAEEMADAVIDLTKEEGYEVSVAVFVTPEGIEKVLEAVRRLAEEGIEVELEIVAVGMTEEEIERLREEIERIAEEYGVNIEVTIHRLEP
# B20: GBRAP_122_2960 (protein)
# chain: AAEAAALAAALAALDAAADKPLSDVVATAMAALAAATSEEAKRAIIERAAAIISKKVPKVSEEEVREILEEARRLMEEEGATAAEAAAFADVEILDLEME
# B21: GBRAP_43_5775 (protein)
# chain: SKELVEGALDTAKLMAENPEIPDEQKVKAIQAAFDLAADEGYVDEELVEEVIDAANKSLSAEALEKIAEHLKELAKKYPEFKEVFEKARKKVEEAIKKKK
# B22: GBRAP_160_4156 (protein)
# chain: SEELEKLIKEIKEIAEESIKLMEGETSEEAKTIAKVAFGDILLEVEENPAVSEETLEEIGKVADEAEAYLDANPDLTVEEVQKILKETAKKVIEILEKEK
# B23: GBRAP_95_7051 (protein)
# chain: EDDQLALESTFEVLETYLDLGDEEAARRAAREAVELLKELGWDAVPDDISLESAELLVREAAEHLSPEDVEALTEALVAKAKTEEDKERIRAVAEEALAA
# B24: GBRAP_83_6900 (protein)
# chain: KEKIVVATTADHIDEAVDAAIDLHKEEGYEVELEVLATPEDFEKVKEGVERLAKAGLDIEVTIYLKGATKEEAEKLKKELEAIAKKHGANIKVEVILEEP
# B25: GBRAP_53_6400 (protein)
# chain: NKEKIEKLKKEVLELAKKATEADEEERKKLVKEIGKAFKELVKAGAPEEELTELAREVAKLLKEAGAPDSDLVELAKTFAELGLEEATAEVAEEAVEDLE
# B26: GBRAP_117_2587 (protein)
# chain: DPLRKEALEKVEELAKEVKEALEKEKTLSEEEKKELREKLLEKTEKLLKELREKLSEEEVDEIIEEVLAKLDAETYFRFESLVEEAEERIREEEEKEKEE
# B27: GBRAP_74_6512 (protein)
# chain: MEELLAKLKEAAEAKDVDKLVALALEIAETGDKETIEKAAEIVVAFVEANLDTLTPEELEKLSDALATLADKLMELGGDSEVVNRVAETAVALEKKLLAL
# B28: GBRAP_160_4496 (protein)
# chain: MEKEEKAIKEARELVELALEAILEEEGEGRRQIARAFAGDIALTLLELGVVSEEQEEEVLKLAEEMLEKVVEAAEKGEEEAKKAAEELKKKLEEKIKEFA
# B29: GBRAP_160_4858 (protein)
# chain: SEKLERALKILEEARDEALDLIDEAPGSQHAAFARAEADDALLELEEEGLVNDELEDELAAIIDELAARLEAAADASKEEHKAIVEEAYDRMMEAVRRLS
# Target: GABARAP, O95166
# Sequence (O95166 whole entry, the tested form may be a part): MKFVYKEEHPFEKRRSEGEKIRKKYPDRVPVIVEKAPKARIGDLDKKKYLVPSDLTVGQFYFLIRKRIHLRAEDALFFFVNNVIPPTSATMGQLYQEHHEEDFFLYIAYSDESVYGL
# Test: median log2 fold change of GCK-ALFA target abundance (FLAG IP / Myc IP barcode read proportion) (log2 ratio); each designed protein is fused to an ALFA-tag nanobody in HEK293 cells to bring the named protein to FLAG-tagged glucokinase (GCK); Myc marks an untargeted standard; higher = target protein stabilised (more abundant)
# Details: target protein: 3xFLAG-MCP-GCK-ALFA reporter; HEK293 landing pad (RPLP)
# How it was run: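 Sequencing of reverse-transcribed, amplified circular RNA barcodes from anti-FLAG and anti-Myc immunoprecipitates provided the readout for an ALFA-nanobody-fused binder library recombined into HEK293 landing-pad cells. Those cells were induced with 2 μg mL^−1 doxycycline, transfected with a plasmid expressing a FLAG-tagged target and a Myc-tagged standard, and lysed after 48 h. Target abundance is the per-binder median log2 ratio of FLAG to Myc barcode read proportions. Only barcodes at a proportion of ≥10^−7 in both replicates and binders with ≥3 barcodes per replicate were kept, with a 10^−6 pseudocount added before the two replicates were pooled.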
row,Binder,median log2 fold change
1,B1,0.238
2,B2,0.0622
3,B3,0.395
4,B4,-0.0686
5,B5,0.188
6,B6,-0.274
7,B7,0.127
8,B8,0.0278
9,B9,-0.52
10,B10,-0.000102
11,B11,0.137
12,B12,-0.0506
13,B13,0.0514
14,B14,-0.418
15,B15,0.295
16,B16,0.0419
17,B17,0.302
18,B18,-0.321
19,B19,0.217
20,B20,0.133
21,B21,0.34
22,B22,-0.303
23,B23,0.171
24,B24,0.14
25,B25,0.294
26,B26,0.216
27,B27,0.23
28,B28,0.245
29,B29,-0.134

# — the supplement of paper PMC12632987
